{"source": "patent US8759392B2", "about": "“Amides as inhibitors of human secreted phospholipase A2” (The Regents of the University of California, priority 2008, dated 2014)", "test_system": "spinal cord injury (SCI)", "test": "Spinal cord injury (SCI) in mice", "excerpt": "FIG. 3 illustrates the assessment of locomotor recovery after SCI.\nFIG. 4 illustrates the quantification of tissue and myelin sparing assessed by staining for GFAP and luxol fast blue, respectively, at 28 days after SCI.\nFIG. 5 illustrates the quantification of serotonergic fiber sparing and neuronal survival at 28 after SCI."}
{"compound": "CCCC[C@H](CCC(=O)O)NC(=O)CCCCCCc1ccccc1", "note": "[Compound 9, (R)-4-(7-phenylheptanamido)octanoic acid]", "values": [{"measurement": "Neuronal survival", "setting": "28 after SCI, sections at 500 μm rostral and caudal to the lesion epicenter", "value": "promoted greater neuron survival"}, {"measurement": "Serotonergic fiber sparing", "setting": "28 after SCI, ventral horns 1 mm caudal to the lesion epicenter", "value": "significantly greater serotonergic sparing"}, {"measurement": "Tissue loss (GFAP staining)", "setting": "28 days after SCI, sections at 100 μm rostral and caudal to the lesion epicenter", "value": "significant reduction tissue loss"}, {"measurement": "Fine locomotor skills, BMS subscores", "setting": "day 10 to 28 after SCI, p<0.05", "value": "significant improvement"}]}
